Data from the supplement of paper PMC8728848.
The other results are listed elsewhere or left out.

Experiments:
Test in all cases: glycan array binding signal (z-score within array); higher = stronger binding
Conditions in all cases: glycan notation: IUPAC condensed, linker removed
[1] = molecular target: Fuc(a1-2)Gal
How it was run: (§1)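 Arrays were curated from the Consortium for Functional Glycomics database, 3228 in total, and kept only where the protein sequence was available. Binding is expressed as a within-array Z-score. This score was averaged across arrays of the same protein sequence at different concentrations or buffers and across linkers, and negative values can be read as non-binding.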

[2] = molecular target: Fuc(a1-2)Gal(b1-3)GalNAc
How it was run: as §1

[3] = molecular target: Fuc(a1-2)Gal(b1-3)GalNAc(a1-3)[Fuc(a1-2)]Gal(b1-4)Glc
How it was run: as §1

[4] = molecular target: Fuc(a1-2)Gal(b1-3)GalNAc(a1-3)[Fuc(a1-2)]Gal(b1-4)GlcNAc
How it was run: as §1

[5] = molecular target: Fuc(a1-2)Gal(b1-3)GalNAc(b1-3)Gal
How it was run: as §1

[6] = molecular target: Fuc(a1-2)Gal(b1-3)GalNAc(b1-3)Gal(a1-4)Gal(b1-4)Glc
How it was run: as §1

[7] = molecular target: Fuc(a1-2)Gal(b1-3)GalNAc(b1-4)[Neu5Ac(a2-3)]Gal(b1-4)Glc
How it was run: as §1

[8] = molecular target: Fuc(a1-2)Gal(b1-3)GlcNAc
How it was run: as §1

[9] = molecular target: Fuc(a1-2)Gal(b1-3)GlcNAc(b1-2)Man(a1-3)[Fuc(a1-2)Gal(b1-3)GlcNAc(b1-2)Man(a1-6)]Man(b1-4)GlcNAc(b1-4)GlcNAc
How it was run: as §1

[10] = molecular target: Fuc(a1-2)Gal(b1-3)GlcNAc(b1-2)Man(a1-3)[Fuc(a1-2)Gal(b1-3)GlcNAc(b1-2)Man(a1-6)]Man(b1-4)GlcNAc(b1-4)[Fuc(a1-6)]GlcNAc
How it was run: as §1

[11] = molecular target: Fuc(a1-2)Gal(b1-3)GlcNAc(b1-3)Gal(b1-4)Glc
How it was run: as §1

[12] = molecular target: Fuc(a1-2)Gal(b1-3)GlcNAc(b1-3)GalNAc
How it was run: as §1

[13] = molecular target: Fuc(a1-2)Gal(b1-3)GlcNAc(b1-3)[Fuc(a1-2)Gal(b1-3)GlcNAc(b1-6)]GalNAc
How it was run: as §1

[14] = molecular target: Fuc(a1-2)Gal(b1-3)GlcNAc(b1-3)[Gal(b1-4)GlcNAc(b1-6)]Gal(b1-4)Glc
How it was run: as §1

[15] = molecular target: Fuc(a1-2)Gal(b1-3)GlcNAc(b1-3)[Neu5Ac(a2-6)Gal(b1-4)GlcNAc(b1-6)]Gal(b1-4)Glc
How it was run: as §1

[16] = molecular target: Fuc(a1-2)Gal(b1-3)GlcNAc6S
How it was run: as §1

[17] = molecular target: Fuc(a1-2)Gal(b1-3)[Fuc(a1-4)]GlcNAc
How it was run: as §1

[18] = molecular target: Fuc(a1-2)Gal(b1-3)[Fuc(a1-4)]GlcNAc(b1-2)Man(a1-3)[Fuc(a1-2)Gal(b1-3)[Fuc(a1-4)]GlcNAc(b1-2)Man(a1-3)]Man(b1-4)GlcNAc(b1-4)GlcNAc
How it was run: as §1

[19] = molecular target: Fuc(a1-2)Gal(b1-3)[Fuc(a1-4)]GlcNAc(b1-2)Man(a1-3)[Fuc(a1-2)Gal(b1-3)[Fuc(a1-4)]GlcNAc(b1-2)Man(a1-6)]Man(b1-4)GlcNAc(b1-4)[Fuc(a1-6)]GlcNAc(b1-4)[Fuc(a1-6)]GlcNAc
How it was run: as §1

[20] = molecular target: Fuc(a1-2)Gal(b1-3)[Fuc(a1-4)]GlcNAc(b1-3)[Fuc(a1-3)[Gal(b1-4)]GlcNAc(b1-6)]Gal(b1-4)Glc
How it was run: as §1

[21] = molecular target: Fuc(a1-2)Gal(b1-3)[Fuc(a1-4)]GlcNAc(b1-3)[Gal(b1-4)GlcNAc(b1-6)]Gal(b1-4)Glc
How it was run: as §1

[22] = molecular target: Fuc(a1-2)Gal(b1-4)Glc
How it was run: as §1

[23] = molecular target: Fuc(a1-2)Gal(b1-4)Glc6S
How it was run: as §1

[24] = molecular target: Fuc(a1-2)Gal(b1-4)GlcNAc
How it was run: as §1

[25] = molecular target: Fuc(a1-2)Gal(b1-4)GlcNAc(b1-2)Man
How it was run: as §1

[26] = molecular target: Fuc(a1-2)Gal(b1-4)GlcNAc(b1-2)Man(a1-3)[Fuc(a1-2)Gal(b1-4)GlcNAc(b1-2)Man(a1-6)]Man(b1-4)GlcNAc(b1-4)GlcNAc
How it was run: as §1

[27] = molecular target: Fuc(a1-2)Gal(b1-4)GlcNAc(b1-2)Man(a1-3)[Fuc(a1-2)Gal(b1-4)GlcNAc(b1-2)Man(a1-6)]Man(b1-4)GlcNAc(b1-4)[Fuc(a1-6)]GlcNAc
How it was run: as §1

[28] = molecular target: Fuc(a1-2)Gal(b1-4)GlcNAc(b1-2)[Fuc(a1-2)Gal(b1-4)GlcNAc(b1-4)]Man(a1-3)[Fuc(a1-2)Gal(b1-4)GlcNAc(b1-2)Man(a1-6)]Man(b1-4)GlcNAc(b1-4)GlcNAc
How it was run: as §1

[29] = molecular target: Fuc(a1-2)Gal(b1-4)GlcNAc(b1-3)Gal(b1-4)GlcNAc
How it was run: as §1

[30] = molecular target: Fuc(a1-2)Gal(b1-4)GlcNAc(b1-3)Gal(b1-4)GlcNAc(b1-2)Man(a1-3)[Fuc(a1-2)Gal(b1-4)GlcNAc(b1-3)Gal(b1-4)GlcNAc(b1-2)Man(a1-6)]Man(b1-4)GlcNAc(b1-4)GlcNAc
How it was run: as §1

[31] = molecular target: Fuc(a1-2)Gal(b1-4)GlcNAc(b1-3)Gal(b1-4)GlcNAc(b1-3)Gal(b1-4)GlcNAc
How it was run: as §1

[32] = molecular target: Fuc(a1-2)Gal(b1-4)GlcNAc(b1-3)GalNAc
How it was run: as §1

[33] = molecular target: Fuc(a1-2)Gal(b1-4)GlcNAc(b1-3)[Fuc(a1-2)Gal(b1-4)GlcNAc(b1-6)]GalNAc
How it was run: as §1

[34] = molecular target: Fuc(a1-2)Gal(b1-4)GlcNAc(b1-3)[Fuc(a1-3)[Gal(b1-4)]GlcNAc(b1-6)]Gal(b1-4)Glc
How it was run: as §1

[35] = molecular target: Fuc(a1-2)Gal(b1-4)GlcNAc(b1-6)GalNAc
How it was run: as §1

[36] = molecular target: Fuc(a1-2)Gal(b1-4)GlcNAc6S
How it was run: as §1

[37] = molecular target: Fuc(a1-2)Gal(b1-4)[Fuc(a1-3)]GlcNAc
How it was run: as §1

B1: CaSRK1 (Capsicum annuum) (protein)
chain: MALCKIFPFAFILLSCSCYLISGQRFDYPTANLSTTWINSVSAPHSIDYTDGSRIRAILLRGTFGPRYACGFYCNGNCESYLFAIFIVQTNSASQITSPAIGFPQVVWSANRNNPVKINSTLQLTAEGDLVLRDADGTLAWSTNTAGKSVAGLSLTDEGNLALFDSKNATVWQSFDHPTDALVPGQKLVPGMKLTASVSRTNWTAGGLFALSAIDNGLVAFVESNPPQKYFEASVGGSNTSGGSNYVKYLNGSLTLFTHSADTTELILISITPASSAQYMKLESNGHLKVYEWTSRGWREVDDLLTGFRGECNYPTVCGRYGICTMGQCSCPTSSSSRTYFRPIDVRRPSLGCSEVTKLTCQNTKKHSPLEVEDVDYFAFKAGISDTDLNTCKRACLEKCSCKAAFFRSGLNSSRTRGDCYLPTEIFSIMNNEKDRTRYDSVAFIKVQV
- glycan array binding signal (z-score) [1]: 0.592
- glycan array binding signal (z-score) [2]: -0.449
- glycan array binding signal (z-score) [3]: -0.458
- glycan array binding signal (z-score) [4]: -0.12
- glycan array binding signal (z-score) [5]: 1.02
- glycan array binding signal (z-score) [6]: -0.277
- glycan array binding signal (z-score) [7]: -0.483
- glycan array binding signal (z-score) [8]: -0.442
- glycan array binding signal (z-score) [9]: -0.192
- glycan array binding signal (z-score) [10]: 0.729
- glycan array binding signal (z-score) [11]: -0.512
- glycan array binding signal (z-score) [12]: -0.456
- glycan array binding signal (z-score) [13]: -0.29
- glycan array binding signal (z-score) [14]: -0.073
- glycan array binding signal (z-score) [15]: -0.238
- glycan array binding signal (z-score) [16]: 0.428
- glycan array binding signal (z-score) [17]: -0.523
- glycan array binding signal (z-score) [18]: 1.12
- glycan array binding signal (z-score) [19]: 0.016
- glycan array binding signal (z-score) [20]: -0.453
- glycan array binding signal (z-score) [21]: -0.1
- glycan array binding signal (z-score) [22]: -0.142
- glycan array binding signal (z-score) [23]: 0.141
- glycan array binding signal (z-score) [24]: -0.248
- glycan array binding signal (z-score) [25]: 0.3
- glycan array binding signal (z-score) [26]: -0.059
- glycan array binding signal (z-score) [27]: 0.053
- glycan array binding signal (z-score) [28]: -0.164
- glycan array binding signal (z-score) [29]: -0.389
- glycan array binding signal (z-score) [30]: 0.044
- glycan array binding signal (z-score) [31]: -0.431
- glycan array binding signal (z-score) [32]: -0.313
- glycan array binding signal (z-score) [33]: -0.065
- glycan array binding signal (z-score) [34]: -0.599
- glycan array binding signal (z-score) [35]: -0.17
- glycan array binding signal (z-score) [36]: -0.34
- glycan array binding signal (z-score) [37]: -0.501
